In the supplement of paper PMC4604168 (melanoma cell lines):
The list shows a part of the results. Most values come without repeats; read them as rough.

Legend:
Test in all cases: cell count relative to DMSO control; melanoma cells; higher = more viable cells
Conditions in all cases: library dose: low library concentration; 72 h
[1] = system: COLO792
[2] = system: COLO800
[3] = system: COLO829
[4] = system: G361
[5] = system: IPC-298
[6] = system: IST-MEL1
[7] = system: LB2518-MEL
[8] = system: LOXIMVI
[9] = system: MEL-HO
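Further: cell number obtained by counting DAPI-stained nuclei in high-throughput microscope images with image analysis software, screen run in 1,536-well plates.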

Structure (SMILES)	cell count [1]	cell count [2]	cell count [3]	cell count [4]	cell count [5]	cell count [6]	cell count [7]	cell count [8]	cell count [9]
Cn1c(Nc2ccc(C(F)(F)F)cc2)nc2cc(Oc3ccnc(-c4ncc(C(F)(F)F)[nH]4)c3)ccc21 + NCC(=O)Nc1ccc(-n2nc(C(F)(F)F)cc2-c2ccc3c(ccc4ccccc43)c2)cc1 [OSU03012] (first compound 0.08 µM, partner dose 1 µM)	36.8%	108%	84.2%	72.6%	53.9%	82.8%	48.5%	96%	72.5%
COCC[n+]1c2c(n(Cc3cnccn3)c1C)C(=O)c1ccccc1C2=O + CN(NC(=O)CC(=O)NN(C)C(=S)c1ccccc1)C(=S)c1ccccc1 [STA4783] (first compound 0.0004 µM, partner dose 0.006 µM)	52.3%	43%	52.8%	60.8%	81.4%	75.7%	38.7%	39.1%	89.8%
Clc1ccc(Nc2nnc(Cc3ccncc3)c3ccccc23)cc1 [vatalanib] + CC1(C)NC(=O)N(c2ccc([N+](=O)[O-])c(C(F)(F)F)c2)C1=O [nilutamide] (first compound 2 µM, partner dose 1 µM)	91.1%	78.8%	96.8%	111%	95.8%	99.5%	95.5%	99.5%	90.3%
Clc1ccc(Nc2nnc(Cc3ccncc3)c3ccccc23)cc1 [vatalanib] + O=C(O)c1ccc(-c2c[nH]c3ncc(-c4ccccc4)cc23)cc1C1CCCC1 [GSK650394] (first compound 2 µM, partner dose 0.16 µM)	88.6%	63.1%	82.8%	76.2%	96.5%	80.6%	98.2%	91.5%	64.2%
O=C(CCCCCCC(=O)Nc1ccccc1)NO [vorinostat] + Cc1cc(N2CCOCC2)cc2[nH]c(-c3c(NC[C@@H](O)c4cccc(Cl)c4)cc[nH]c3=O)nc12 [BMS536924] (first compound 0.08 µM, partner dose 0.2 µM)	76.3%	34%	97.4%	85.2%	100%	99.8%	80.2%	74.6%	92.3%
OCc1c[nH]c2ccccc12 [Indole-3-carbinol] + CC(C)CCN1c2nc(Nc3cc(F)c(O)c(F)c3)ncc2N(C)C(=O)C1C [BID1870] (first compound 0.8 µM, partner dose 0.2 µM)	84.2%	89%	93.7%	93.3%	92%	106%	88.4%	94.7%	96.6%
Cn1c(Nc2ccc(C(F)(F)F)cc2)nc2cc(Oc3ccnc(-c4ncc(C(F)(F)F)[nH]4)c3)ccc21 + CN(NC(=O)CC(=O)NN(C)C(=S)c1ccccc1)C(=S)c1ccccc1 [STA4783] (first compound 0.08 µM, partner dose 0.006 µM)	40.6%	56.4%	75.5%	54.5%	52.7%	84.4%	54.7%	69.5%	70.5%
OCc1c[nH]c2ccccc12 [Indole-3-carbinol] + O=C(Nc1ccccc1)c1cc([N+](=O)[O-])ccc1Cl [GW9662] (first compound 0.8 µM, partner dose 2 µM)	102%	82.8%	100%	95.9%	89%	96.4%	112%	69.5%	93.8%
COCC[n+]1c2c(n(Cc3cnccn3)c1C)C(=O)c1ccccc1C2=O + NCC(=O)Nc1ccc(-n2nc(C(F)(F)F)cc2-c2ccc3c(ccc4ccccc43)c2)cc1 [OSU03012] (first compound 0.0004 µM, partner dose 1 µM)	85%	98.7%	74.7%	90%	82.4%	81.6%	101%	94.8%	95.9%
OCc1c[nH]c2ccccc12 [Indole-3-carbinol] + COc1ccc(-c2ccc3c(N4CCOCC4)nc(N4C[C@@H](C)O[C@@H](C)C4)nc3n2)cc1CO [KU0063794] (first compound 0.8 µM, partner dose 0.02 µM)	87.8%	111%	90.5%	102%	97.5%	93.5%	82.9%	91.3%	90.4%
OCc1c[nH]c2ccccc12 [Indole-3-carbinol] + Oc1nc(-c2ccc(C(F)(F)F)cc2)nc2c1CSCC2 [XAV939] (first compound 0.8 µM, partner dose 2 µM)	83.9%	97%	96.2%	88.2%	99.5%	97.1%	96.6%	78.4%	105%
COCC[n+]1c2c(n(Cc3cnccn3)c1C)C(=O)c1ccccc1C2=O + C[C@@H]1CCN(C(=O)CC#N)C[C@@H]1N(C)c1ncnc2[nH]ccc12 [CP690550] (first compound 0.0004 µM, partner dose 1 µM)	107%	77.9%	66%	111%	93.3%	75.8%	78.8%	297%	93.1%
Clc1ccc(Nc2nnc(Cc3ccncc3)c3ccccc23)cc1 [vatalanib] + CC(C)CCN1c2nc(Nc3cc(F)c(O)c(F)c3)ncc2N(C)C(=O)C1C [BID1870] (first compound 2 µM, partner dose 0.2 µM)	83.6%	82.7%	120%	95.4%	97.4%	89.3%	108%	103%	98.6%
OCc1c[nH]c2ccccc12 [Indole-3-carbinol] + O=C(O)C(=O)Nc1sc2c(c1C(=O)O)CCNC2 [TCS401] (first compound 0.8 µM, partner dose 1.66667 µM)	115%	136%	97.3%	88.7%	97%	115%	93%	115%	107%
Cn1c(Nc2ccc(C(F)(F)F)cc2)nc2cc(Oc3ccnc(-c4ncc(C(F)(F)F)[nH]4)c3)ccc21 + O=C(O)c1ccc(-c2c[nH]c3ncc(-c4ccccc4)cc23)cc1C1CCCC1 [GSK650394] (first compound 0.08 µM, partner dose 0.16 µM)	38.3%	113%	88.3%	70%	66.5%	87.9%	44%	63.7%	65.9%
Clc1ccc(Nc2nnc(Cc3ccncc3)c3ccccc23)cc1 [vatalanib] + N#Cc1c(O)c2c(-c3ccc(-c4ccccc4O)cc3)csc2[nH]c1=O [A769662] (first compound 2 µM, partner dose 2 µM)	94.6%	108%	113%	95.1%	96%	88.2%	94.2%	116%	80.1%
Cn1c(Nc2ccc(C(F)(F)F)cc2)nc2cc(Oc3ccnc(-c4ncc(C(F)(F)F)[nH]4)c3)ccc21 + CC1(C)NC(=O)N(c2ccc([N+](=O)[O-])c(C(F)(F)F)c2)C1=O [nilutamide] (first compound 0.08 µM, partner dose 1 µM)	34%	67.7%	91.2%	66.6%	53.6%	82.9%	45.9%	56.3%	74.2%
OCc1c[nH]c2ccccc12 [Indole-3-carbinol] + CCCCCCCCCCCC1=C(O)C(=O)C=C(O)C1=O [Embelin] (first compound 0.8 µM, partner dose 1.2 µM)	109%	171%	109%	101%	103%	108%	106%	94.5%	99.5%
OCc1c[nH]c2ccccc12 [Indole-3-carbinol] + O=S(=O)(c1ccccc1)N(CC(F)(F)F)c1ccc(C(O)(C(F)(F)F)C(F)(F)F)cc1 [T0901317] (first compound 0.8 µM, partner dose 1.4 µM)	90.8%	92.8%	91.6%	107%	97.8%	104%	83%	135%	98%
OCc1c[nH]c2ccccc12 [Indole-3-carbinol] + COc1cc2ncnc(Nc3ccc(Oc4ccccc4)cc3)c2cc1OC [SrcI1] (first compound 0.8 µM, partner dose 2 µM)	96%	96.4%	128%	105%	96.3%	103%	126%	200%	92.1%
Clc1ccc(Nc2nnc(Cc3ccncc3)c3ccccc23)cc1 [vatalanib] + O=C1NC(=O)/C(=C/c2ccc(-c3ccc(F)cc3O)o2)S1 [AS252424] (first compound 2 µM, partner dose 1 µM)	93.9%	94.4%	130%	87.4%	90.3%	95.4%	101%	99.3%	91.8%
COCC[n+]1c2c(n(Cc3cnccn3)c1C)C(=O)c1ccccc1C2=O + Cc1ccc(NC(=O)c2cccc(N(C)C)c2)cc1NC(=O)c1ccc(O)cc1 [ZM336372] (first compound 0.0004 µM, partner dose 2 µM)	120%	80.4%	117%	116%	75.3%	78.8%	81.5%	73.2%	99%
Cn1c(Nc2ccc(C(F)(F)F)cc2)nc2cc(Oc3ccnc(-c4ncc(C(F)(F)F)[nH]4)c3)ccc21 + NC(=O)Nc1cc(-c2cccc(F)c2)sc1C(=O)N[C@H]1CCCNC1 [AZD7762] (first compound 0.08 µM, partner dose 0.02 µM)	47%	66.2%	117%	74.8%	63%	96.8%	72%	95.7%	83.3%
OCc1c[nH]c2ccccc12 [Indole-3-carbinol] + CC(C)(C)c1cnc(CSc2cnc(NC(=O)C3CCNCC3)s2)o1 [SNS-032] (first compound 0.8 µM, partner dose 0.01 µM)	103%	109%	114%	101%	103%	96.2%	83%	128%	93.2%
